# Source: the supplement of paper PMC8728848
# This is one part of the list.
# B1: HA-11100 (Pseudomonas aeruginosa), Q02G51_PSEAB (protein)
# chain: QFNPNEIKISQQGKTTLIDQSTQRAIINWKGFDVSADEAVRFNQPGVTSSTLNRVTAGQESVIAGRISAPGQVIIYNSNGVVFSGSAKVDVGSLITTTANISDEHFRQGKLIFDQPGNPDARIVNDGSISVAEKGLAAFVAPSVANNGVINARLGTVAMAAGNAATIDLYG
# Experiments:
# Experiment in all cases: glycan array binding signal (z-score within array); higher = stronger binding
# Conditions in all cases: glycan notation: IUPAC condensed, linker removed
# [1] = biological target: GlcNAc(b1-4)GlcNAc(b1-4)GlcNAc(b1-4)GlcNAc(b1-4)GlcNAc
# How it was run: (§1)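 Glycan array data were curated from 3228 arrays in the Consortium for Functional Glycomics database and kept only where the protein sequence was available. Glycan names were converted to IUPAC-condensed notation, and columns mapping to the same glycan were averaged. The binding signal is a within-array Z-score, averaged across arrays of the same protein sequence at different concentrations or buffers and across linkers. Negative Z-scores can be read as non-binding.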
# [2] = biological target: GlcNAc(b1-4)GlcNAc(b1-4)GlcNAc(b1-4)GlcNAc(b1-4)GlcNAc(b1-4)GlcNAc
# How it was run: as §1
# [3] = biological target: GlcNAc(b1-4)[GlcNAc(b1-6)]GalNAc
# How it was run: as §1
# [4] = biological target: GlcNAc(b1-6)Gal(b1-4)GlcNAc
# How it was run: as §1
# GlcNAc(b1-6)GalNAc = biological target: GlcNAc(b1-6)GalNAc
# How it was run: as §1
# [5] = biological target: GlcNAc6S(b1-3)Gal(b1-4)GlcNAc
# How it was run: as §1
# Kdn(a2-3)Gal(b1-3)GalNAc = biological target: Kdn(a2-3)Gal(b1-3)GalNAc
# How it was run: as §1
# Kdn(a2-3)Gal(b1-3)GlcNAc = biological target: Kdn(a2-3)Gal(b1-3)GlcNAc
# How it was run: as §1
# Kdn(a2-3)Gal(b1-4)Glc = biological target: Kdn(a2-3)Gal(b1-4)Glc
# How it was run: as §1
# Kdn(a2-3)Gal(b1-4)GlcNAc = biological target: Kdn(a2-3)Gal(b1-4)GlcNAc
# How it was run: as §1
# [6] = biological target: Kdn(a2-3)Gal(b1-4)[Fuc(a1-3)]GlcNAc
# How it was run: as §1
# Kdn(a2-6)Gal(b1-4)GlcNAc = biological target: Kdn(a2-6)Gal(b1-4)GlcNAc
# How it was run: as §1
# [7] = biological target: Man(a1-2)Man(a1-2)Man(a1-3)Man
# How it was run: as §1
# [8] = biological target: Man(a1-2)Man(a1-2)Man(a1-6)[Man(a1-3)]Man
# How it was run: as §1
# Man(a1-2)Man(a1-3)Man = biological target: Man(a1-2)Man(a1-3)Man
# How it was run: as §1
# [9] = biological target: Man(a1-2)Man(a1-3)[Man(a1-2)Man(a1-6)]Man
# How it was run: as §1
# [10] = biological target: Man(a1-2)Man(a1-3)[Man(a1-2)Man(a1-6)]Man(a1-6)[Man(a1-2)Man(a1-2)Man(a1-3)]Man
# How it was run: as §1
# [11] = biological target: Man(a1-2)Man(a1-3)[Man(a1-2)Man(a1-6)]Man(a1-6)[Man(a1-2)Man(a1-2)Man(a1-3)]Man(b1-4)GlcNAc(b1-4)GlcNAc
# How it was run: as §1
# [12] = biological target: Man(a1-2)Man(a1-3)[Man(a1-6)]Man(a1-6)[Man(a1-2)Man(a1-3)]Man(b1-4)GlcNAc(b1-4)GlcNAc
# How it was run: as §1
# [13] = biological target: Man(a1-2)Man(a1-6)[Man(a1-3)]Man(a1-6)[Man(a1-2)Man(a1-2)Man(a1-3)]Man
# How it was run: as §1
# [14] = biological target: Man(a1-2)Man(a1-6)[Man(a1-3)]Man(a1-6)[Man(a1-2)Man(a1-2)Man(a1-3)]Man(b1-4)GlcNAc(b1-4)GlcNAc
# How it was run: as §1
# Man(a1-3)[Man(a1-6)]Man = biological target: Man(a1-3)[Man(a1-6)]Man
# How it was run: as §1
# [15] = biological target: Man(a1-3)[Man(a1-6)]Man(a1-6)[Man(a1-2)Man(a1-3)]Man(b1-4)GlcNAc(b1-4)GlcNAc
# How it was run: as §1
# [16] = biological target: Man(a1-3)[Man(a1-6)]Man(a1-6)[Man(a1-3)]Man
# How it was run: as §1
# [17] = biological target: Man(a1-3)[Man(a1-6)]Man(a1-6)[Man(a1-3)]Man(b1-4)GlcNAc(b1-4)GlcNAc
# How it was run: as §1
# [18] = biological target: Man(a1-3)[Man(a1-6)]Man(b1-4)GlcNAc(b1-4)GlcNAc
# How it was run: as §1
# [19] = biological target: Man(a1-3)[Man(a1-6)]Man(b1-4)GlcNAc(b1-4)[Fuc(a1-6)]GlcNAc
# How it was run: as §1
# Man(a1-6)Man = biological target: Man(a1-6)Man
# How it was run: as §1
# Man(b1-4)GlcNAc = biological target: Man(b1-4)GlcNAc
# How it was run: as §1
# MurNAc(b1-4)GlcNAc = biological target: MurNAc(b1-4)GlcNAc
# How it was run: as §1
# Neu5Ac(a2-3)Gal = biological target: Neu5Ac(a2-3)Gal
# How it was run: as §1
# [20] = biological target: Neu5Ac(a2-3)Gal(b1-3)GalNAc
# How it was run: as §1
# [21] = biological target: Neu5Ac(a2-3)Gal(b1-3)GalNAc(b1-3)Gal(a1-4)Gal(b1-4)Glc
# How it was run: as §1
# [22] = biological target: Neu5Ac(a2-3)Gal(b1-3)GalNAc(b1-4)Gal(b1-4)Glc
# How it was run: as §1
# [23] = biological target: Neu5Ac(a2-3)Gal(b1-3)GalNAc(b1-4)[Neu5Ac(a2-3)]Gal(b1-4)Glc
# How it was run: as §1
# [24] = biological target: Neu5Ac(a2-3)Gal(b1-3)GalNAc(b1-4)[Neu5Ac(a2-8)Neu5Ac(a2-3)]Gal(b1-4)Glc
# How it was run: as §1
# [25] = biological target: Neu5Ac(a2-3)Gal(b1-3)GalNAc6S
# How it was run: as §1
# [26] = biological target: Neu5Ac(a2-3)Gal(b1-3)GlcNAc
# How it was run: as §1
# [27] = biological target: Neu5Ac(a2-3)Gal(b1-3)GlcNAc(b1-2)Man
# How it was run: as §1
# [28] = biological target: Neu5Ac(a2-3)Gal(b1-3)GlcNAc(b1-2)Man(a1-3)[GlcNAc(b1-4)][Neu5Ac(a2-3)Gal(b1-3)GlcNAc(b1-2)Man(a1-6)]Man(b1-4)GlcNAc(b1-4)GlcNAc
# How it was run: as §1
# [29] = biological target: Neu5Ac(a2-3)Gal(b1-3)GlcNAc(b1-2)Man(a1-3)[Neu5Ac(a2-3)Gal(b1-3)GlcNAc(b1-2)Man(a1-6)]Man(b1-4)GlcNAc(b1-4)GlcNAc
# How it was run: as §1
# [30] = biological target: Neu5Ac(a2-3)Gal(b1-3)GlcNAc(b1-2)[Neu5Ac(a2-3)Gal(b1-3)GlcNAc(b1-4)]Man(a1-6)[Neu5Ac(a2-3)Gal(b1-3)GlcNAc(b1-2)Man(a1-3)]Man(b1-4)GlcNAc(b1-4)GlcNAc
# How it was run: as §1
# [31] = biological target: Neu5Ac(a2-3)Gal(b1-3)GlcNAc(b1-3)Gal(b1-3)GlcNAc
# How it was run: as §1
# [32] = biological target: Neu5Ac(a2-3)Gal(b1-3)GlcNAc(b1-3)Gal(b1-4)GlcNAc
# How it was run: as §1
# [33] = biological target: Neu5Ac(a2-3)Gal(b1-3)GlcNAc(b1-3)GalNAc
# How it was run: as §1
binder,measurement,setting,value
B1,glycan array binding signal (z-score),[1],-0.054
same,glycan array binding signal (z-score),[2],-0.245
same,glycan array binding signal (z-score),[3],-0.21
same,glycan array binding signal (z-score),[4],-0.123
same,glycan array binding signal (z-score),GlcNAc(b1-6)GalNAc,-0.254
same,glycan array binding signal (z-score),[5],-0.314
same,glycan array binding signal (z-score),Kdn(a2-3)Gal(b1-3)GalNAc,-0.346
same,glycan array binding signal (z-score),Kdn(a2-3)Gal(b1-3)GlcNAc,0.013
same,glycan array binding signal (z-score),Kdn(a2-3)Gal(b1-4)Glc,-0.48
same,glycan array binding signal (z-score),Kdn(a2-3)Gal(b1-4)GlcNAc,-0.116
same,glycan array binding signal (z-score),[6],2.16
same,glycan array binding signal (z-score),Kdn(a2-6)Gal(b1-4)GlcNAc,-0.238
same,glycan array binding signal (z-score),[7],-0.318
same,glycan array binding signal (z-score),[8],-0.538
same,glycan array binding signal (z-score),Man(a1-2)Man(a1-3)Man,-0.036
same,glycan array binding signal (z-score),[9],-0.474
same,glycan array binding signal (z-score),[10],-0.253
same,glycan array binding signal (z-score),[11],-0.026
same,glycan array binding signal (z-score),[12],-0.194
same,glycan array binding signal (z-score),[13],-0.18
same,glycan array binding signal (z-score),[14],-0.45
same,glycan array binding signal (z-score),Man(a1-3)[Man(a1-6)]Man,-0.417
same,glycan array binding signal (z-score),[15],3.21
same,glycan array binding signal (z-score),[16],-0.327
same,glycan array binding signal (z-score),[17],-0.474
same,glycan array binding signal (z-score),[18],-0.349
same,glycan array binding signal (z-score),[19],-0.079
same,glycan array binding signal (z-score),Man(a1-6)Man,-0.622
same,glycan array binding signal (z-score),Man(b1-4)GlcNAc,-0.549
same,glycan array binding signal (z-score),MurNAc(b1-4)GlcNAc,0.053
same,glycan array binding signal (z-score),Neu5Ac(a2-3)Gal,-0.148
same,glycan array binding signal (z-score),[20],-0.024
same,glycan array binding signal (z-score),[21],-0.098
same,glycan array binding signal (z-score),[22],-0.114
same,glycan array binding signal (z-score),[23],-0.345
same,glycan array binding signal (z-score),[24],-0.214
same,glycan array binding signal (z-score),[25],-0.333
same,glycan array binding signal (z-score),[26],-0.21
same,glycan array binding signal (z-score),[27],-0.402
same,glycan array binding signal (z-score),[28],-0.319
same,glycan array binding signal (z-score),[29],-0.167
same,glycan array binding signal (z-score),[30],0.114
same,glycan array binding signal (z-score),[31],-0.25
same,glycan array binding signal (z-score),[32],-0.243
same,glycan array binding signal (z-score),[33],0.236
